# T1: IL-2Rβ on TF-1β cells (human, UniProt P14784 27-551)
# T1 sequence (looked up): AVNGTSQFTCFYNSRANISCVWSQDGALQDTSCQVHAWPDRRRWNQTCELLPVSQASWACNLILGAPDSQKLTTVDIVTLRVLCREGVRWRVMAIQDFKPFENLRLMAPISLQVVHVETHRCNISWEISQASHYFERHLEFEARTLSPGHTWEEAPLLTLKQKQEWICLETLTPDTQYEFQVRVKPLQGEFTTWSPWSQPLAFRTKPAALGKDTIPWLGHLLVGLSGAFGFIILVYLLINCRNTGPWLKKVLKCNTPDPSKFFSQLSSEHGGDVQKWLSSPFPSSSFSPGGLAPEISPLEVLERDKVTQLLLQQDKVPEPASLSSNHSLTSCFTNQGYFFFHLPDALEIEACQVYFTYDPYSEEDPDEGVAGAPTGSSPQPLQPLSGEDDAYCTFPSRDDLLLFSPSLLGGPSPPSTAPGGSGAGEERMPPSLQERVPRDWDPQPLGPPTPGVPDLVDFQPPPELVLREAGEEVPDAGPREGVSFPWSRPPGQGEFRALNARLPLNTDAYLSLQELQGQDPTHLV
# B1: FLAG-IL-15 N65K (ligand)
# chain: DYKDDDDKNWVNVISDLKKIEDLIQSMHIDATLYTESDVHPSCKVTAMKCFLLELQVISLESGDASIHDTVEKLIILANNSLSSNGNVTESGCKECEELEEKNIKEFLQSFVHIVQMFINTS
# B2: FLAG-IL-15 I68D (ligand)
# chain: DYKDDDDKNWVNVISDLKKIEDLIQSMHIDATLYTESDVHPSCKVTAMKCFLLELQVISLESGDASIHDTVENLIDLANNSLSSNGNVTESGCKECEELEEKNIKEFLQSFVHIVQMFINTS
# notes: also called 168D
# B3: FLAG-IL-15 E64K (ligand)
# chain: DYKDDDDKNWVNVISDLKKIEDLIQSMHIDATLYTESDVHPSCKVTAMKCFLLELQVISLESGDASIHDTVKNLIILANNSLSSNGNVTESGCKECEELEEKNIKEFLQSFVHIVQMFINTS
# B4: FLAG-IL-15 wild type (ligand)
# chain: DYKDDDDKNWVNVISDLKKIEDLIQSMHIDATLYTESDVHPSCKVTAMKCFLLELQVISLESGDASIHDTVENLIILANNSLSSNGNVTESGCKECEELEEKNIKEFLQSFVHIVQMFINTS
# notes: Secreted from 293 c18 cells through the rat preprolactin signal peptide; tested as culture supernatant; also called WT
# B5: FLAG-IL-15 S51D (ligand)
# chain: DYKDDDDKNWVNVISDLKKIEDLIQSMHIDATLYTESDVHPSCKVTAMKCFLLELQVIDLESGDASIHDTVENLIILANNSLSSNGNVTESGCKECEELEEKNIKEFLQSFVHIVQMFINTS
# B6: FLAG-IL-15 I67E (ligand)
# chain: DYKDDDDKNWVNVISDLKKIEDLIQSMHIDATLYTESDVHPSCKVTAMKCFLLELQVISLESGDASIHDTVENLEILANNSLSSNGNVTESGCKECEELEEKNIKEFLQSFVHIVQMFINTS
# B7: FLAG-IL-15 L52D (ligand)
# chain: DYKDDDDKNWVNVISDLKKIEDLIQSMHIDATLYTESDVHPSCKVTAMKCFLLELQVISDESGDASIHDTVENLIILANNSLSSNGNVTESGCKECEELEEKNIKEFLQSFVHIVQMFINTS
# B8: FLAG-IL-15 L66E (ligand)
# chain: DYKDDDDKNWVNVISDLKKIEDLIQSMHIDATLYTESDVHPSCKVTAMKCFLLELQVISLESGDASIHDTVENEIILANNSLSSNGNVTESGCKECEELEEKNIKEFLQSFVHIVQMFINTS
# B9: FLAG-IL-15 I67D (ligand)
# chain: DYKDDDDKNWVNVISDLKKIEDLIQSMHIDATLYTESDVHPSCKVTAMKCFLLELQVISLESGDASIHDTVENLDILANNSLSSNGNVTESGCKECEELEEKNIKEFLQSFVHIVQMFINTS
# B10: FLAG-IL-15 Q48K (ligand)
# chain: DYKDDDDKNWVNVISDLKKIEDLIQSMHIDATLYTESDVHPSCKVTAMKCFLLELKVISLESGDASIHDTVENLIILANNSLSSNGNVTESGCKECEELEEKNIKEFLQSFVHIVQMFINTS
# B11: FLAG-IL-15 L45E (ligand)
# chain: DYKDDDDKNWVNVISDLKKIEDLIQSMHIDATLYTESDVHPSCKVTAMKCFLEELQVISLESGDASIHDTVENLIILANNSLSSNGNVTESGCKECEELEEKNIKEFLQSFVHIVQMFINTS
# B12: FLAG-IL-15 E46K (ligand)
# chain: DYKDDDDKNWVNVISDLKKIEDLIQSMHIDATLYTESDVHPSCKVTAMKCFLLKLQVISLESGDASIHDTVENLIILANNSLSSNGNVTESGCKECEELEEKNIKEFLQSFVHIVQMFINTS
# B13: FLAG-IL-15 L66D (ligand)
# chain: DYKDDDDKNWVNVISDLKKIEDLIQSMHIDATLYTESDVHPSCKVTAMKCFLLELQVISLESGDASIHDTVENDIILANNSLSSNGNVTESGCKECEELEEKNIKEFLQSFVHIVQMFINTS
# B14: FLAG-IL-15 I50D (ligand)
# chain: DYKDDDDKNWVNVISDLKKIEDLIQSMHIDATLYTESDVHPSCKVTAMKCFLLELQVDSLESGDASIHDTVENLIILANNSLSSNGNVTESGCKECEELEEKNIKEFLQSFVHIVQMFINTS
# B15: FLAG-IL-15 L45D (ligand)
# chain: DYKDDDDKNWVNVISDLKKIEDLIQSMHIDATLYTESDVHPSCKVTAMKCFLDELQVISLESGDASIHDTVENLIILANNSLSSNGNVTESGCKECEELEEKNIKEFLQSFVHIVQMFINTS
# B16: FLAG-IL-15 V49D (ligand)
# chain: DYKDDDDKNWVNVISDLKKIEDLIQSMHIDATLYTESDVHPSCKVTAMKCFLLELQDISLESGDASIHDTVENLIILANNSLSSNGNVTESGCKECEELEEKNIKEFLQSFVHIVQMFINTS
# B17: FLAG-IL-15 L69R (ligand)
# chain: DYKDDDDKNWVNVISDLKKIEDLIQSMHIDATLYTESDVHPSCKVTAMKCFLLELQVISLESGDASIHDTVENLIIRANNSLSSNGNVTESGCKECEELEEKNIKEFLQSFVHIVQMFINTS
# Biological target: T1, IL-2Rβ on TF-1β cells
# Assay: cell-based or functional assay
"EC50 (pM), TF-1β proliferation [pM]","Maximal induction (% WT), TF-1β proliferation [% WT]","Relative activity (% WT), TF-1β proliferation [% WT]",Binder
> 200,0,< 0.4,B1
~0.8,20,,B2
~0.8,,,B3

# Biological target: T2, IL-15Rα expressed by TF-1 cells (human, UniProt Q13261 31-267)
# Assay: cell-based or functional assay
"EC50 (pM), TF-1β proliferation [pM]","Relative activity (% WT), TF-1β proliferation [% WT]","Maximal induction (% WT), TF-1β proliferation [% WT]",Binder
6,100,,B4
1.9,316,100,B5
> 10,< 8,> 75,B6
1.7,353,100,B7
> 200,< 0.4,0,B8
> 30,< 3,> 40,B9
4.8,125,100,B10
2.4,250,100,B11
> 1300,< 0.5,> 20,B12
> 200,< 0.4,0,B13
> 60,< 10,> 10,B14
1.7,353,100,B15

# Biological target: T2, IL-15Rα expressed by TF-1 cells
# T2 sequence (Q13261 31-267): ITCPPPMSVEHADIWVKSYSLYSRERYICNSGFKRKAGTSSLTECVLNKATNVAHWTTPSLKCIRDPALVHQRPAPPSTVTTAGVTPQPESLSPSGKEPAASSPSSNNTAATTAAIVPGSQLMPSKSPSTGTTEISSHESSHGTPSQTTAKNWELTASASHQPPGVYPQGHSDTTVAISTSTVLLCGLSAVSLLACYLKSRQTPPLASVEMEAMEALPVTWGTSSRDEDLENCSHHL
# Assay: competition with 80 pM [125I]-rIL-15 on TF-1 cells
# Method: Human rIL-15 was radio-labeled with [¹²⁵I]-iodine (specific radioactivity of around 2000 cpm/finol) using a chloramine T method (34), and binding experiments were performed as described previously (12). Non specific binding was determined in the presence of 100 fold excess of unlabeled cytokine. For the IL-15 binding experiments, TF-1 cells were incubated with increasing concentrations of labeled rIL-15. Regression analysis of the binding data was accomplished using a one-site equilibrium binding equation (Grafit, Erithacus Software, Staines, UK) and data was plotted in the Scatchard coordinate system. For inhibition of IL-15 binding experiments, TF-1 cells were incubated with a fixed concentration of iodinated rIL-15 and increasing concentrations of FLAG-IL-15 or mutants or mAbs. Regression analysis of data was accomplished using a 4 parameter logistic equation (Grafit, Erithacus Software).
# FLAG-IL-15 and mutants were then assayed for their ability to bind IL-15Rα expressed by TF-1 cells (FIGS. 4A, 4B, 4C). For that purpose, a competition assay was used that allowed to compare the efficiencies of the different mutants to inhibit the binding of a low, non-saturating concentration of radio-iodinated rIL-15 to TF-1 cells. The competition curves are shown in FIG. 4A, 4B, 4C and the concentrations of mutants giving half maximal inhibitory effects (IC50s) are listed in Table I.
IC50 [nM],Relative activity (% WT),Binder
0.0261,100,B4
0.0116,225,B5
0.0637,41,B6
0.0109,239,B7
0.0266,98,B1
0.407,6,B8
0.105,25,B9
0.0205,127,B10
0.0125,209,B11
0.0202,129,B2
0.0182,143,B3
13.3,0.2,B12
0.191,14,B13
0.348,8,B16
2.95,0.88,B14
0.0101,258,B15

# Biological target: T1, IL-2Rβ on TF-1β cells
# Assay: cell-based or functional assay
# Remark: another data set of the same source
row,maximal response of TF-1β proliferation (% of wild-type IL-15) [%],Binder
1,~2,B17

# Biological target: T2, IL-15Rα expressed by TF-1 cells
# Assay: cell-based or functional assay
# Remark: another data set of the same source
row,IC50 of inhibition of IL-15 induced TF-1β proliferation in presence of A41 [nM],Binder
1,0.012,B1

# Biological target: T2, IL-15Rα expressed by TF-1 cells
# Assay: competition with 80 pM [125I]-rIL-15 on TF-1 cells (Example 2)
IC50 [nM],Relative activity (% WT),Binder
0.0236,100,B4
0.0091,259,B17

# Biological target: T2, IL-15Rα expressed by TF-1 cells
# Assay: competition with [125I]-rIL-15 on TF-1 cells
row,fold reduction of affinity against wild-type IL-15 [fold],Binder
1,13,B16

# Source: patent publication US20110158938A1 (INSERM INSTITUT NATIONAL DE LA SANTE ET DE LA RECHERCHE …, published 2011)
